The list shows a part of the results. Values were computed here from the reads of four pooled replicates and scatter widely.
The sequences below were run against T1, Pho4 (S. cerevisiae) (UniProt P07270) (assay: relative binding free energy (BET-seq); higher = weaker binding). Details: reference: library average.
T1 sequence: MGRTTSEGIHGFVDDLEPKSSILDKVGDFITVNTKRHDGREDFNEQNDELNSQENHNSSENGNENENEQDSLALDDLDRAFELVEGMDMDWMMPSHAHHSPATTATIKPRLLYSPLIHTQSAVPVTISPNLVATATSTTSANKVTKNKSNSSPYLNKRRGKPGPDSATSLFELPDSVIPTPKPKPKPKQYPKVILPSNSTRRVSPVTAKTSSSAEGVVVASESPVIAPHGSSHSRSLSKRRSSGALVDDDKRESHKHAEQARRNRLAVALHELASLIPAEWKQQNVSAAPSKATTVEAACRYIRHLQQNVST

| Sequence | relative binding free energy [kcal/mol] |
| --- | --- |
| AAGTTCACGTGGCTGG | 0.1 |
| AATTTCACGTGTAAAT | 0.21 |
| ATTCTCACGTGAAGGT | 0.3 |
| AGTGACACGTGTAGGG | -0.1 |
| TTAGTCACGTGCTGTA | -0.05 |
| GTTAGCACGTGTGAAA | -0.02 |
| GTAGTCACGTGTAGTG | 0.11 |
| GACATCACGTGAGTGG | 0.32 |
| GGGTGCACGTGGGGAT | 0.03 |
| GTATGCACGTGCGTTA | -0.01 |
| ATTCGCACGTGTGTGA | 0.07 |
| AATATCACGTGTTGAA | 0.22 |
| ACAATCACGTGTTGAG | 0.39 |
| TAAGGCACGTGGCTGT | -0.22 |
| AGCGTCACGTGTTAGG | 0.04 |
| TTGTGCACGTGACTGA | 0.1 |
| GATGACACGTGGAGAG | 0.16 |
| GAATGCACGTGGGCTT | -0.18 |
| GTTGTCACGTGTATAG | 0.25 |
| GGTGCCACGTGTGCTG | -0.1 |
| CTGTGCACGTGTGGGC | 0.04 |
| ATAGTCACGTGGATTT | 0.22 |
| GGGGCCACGTGGTGCA | -0.19 |
| ATATTCACGTGGTTGG | 0.18 |
| GTTGGCACGTGAGCTA | 0 |

| Sequence | relative binding free energy [kcal/mol] |
| --- | --- |
| GGTTTCACGTGTGTAT | 0.24 |
| GGGGACACGTGTATTA | -0.09 |
| TTTTGCACGTGGGTAC | -0.02 |
| GGCCGCACGTGTGGTC | 0.16 |
| GGAGCCACGTGGGTTG | -0.16 |
| TTTGGCACGTGATTAG | 0.04 |
| TGTATCACGTGGTTGT | 0.14 |
| GGGTGCACGTGTTCAG | -0.03 |
| CTGTTCACGTGTGGTG | 0.26 |
| GTATTCACGTGTTAAG | 0.23 |
| CGCCGCACGTGGGGGT | -0.32 |
| GATGTCACGTGGGTGA | -0.03 |
| CAGTGCACGTGTTGCG | 0.03 |
| GGAACCACGTGGGGGC | -0.11 |
| TTGTGCACGTGCCAGT | -0.12 |
| TTCATCACGTGTCAGG | 0.26 |
| CGCTTCACGTGGTTGT | 0.28 |
| GCTGTCACGTGATAGT | 0.38 |
| GATAGCACGTGTCGTT | -0.03 |
| TAATGCACGTGTATGT | 0.12 |
| AGTTCCACGTGTTGAG | 0.23 |
| AGGTGCACGTGAGGGA | 0.25 |
| TTGAGCACGTGTGGGC | -0.14 |
| GGCTGCACGTGGGTAT | -0.17 |
| TGGGTCACGTGAATAA | 0.3 |

| Sequence | relative binding free energy [kcal/mol] |
| --- | --- |
| GGTAACACGTGTCGTG | -0.08 |
| GTAATCACGTGAGAAT | 0.55 |
| AGATTCACGTGGTAAA | 0.19 |
| AAGGCCACGTGGTGTG | -0.18 |
| TACATCACGTGGGGTA | -0.12 |
| GAGAGCACGTGCTGGG | -0.2 |
| AGAGTCACGTGTGTAG | 0.11 |
| CGGTACACGTGTGTAT | 0.09 |
| TTTTCCACGTGTAGGT | 0.05 |
| TGCGCCACGTGGTGGG | -0.09 |
| TTTGACACGTGGTCAT | -0.1 |
| GTGTGCACGTGGTGCC | -0.16 |
| GTTCTCACGTGATCGG | 0.47 |
| TGGAGCACGTGGAGTA | -0.11 |
| CGTAACACGTGAGGTT | 0.13 |
| CTGCTCACGTGTTTTG | 0.19 |
| TTAGTCACGTGGCTTG | 0.1 |
| GGCTACACGTGGTAGG | -0.02 |
| TGGTGCACGTGTGTTT | 0.07 |
| GTGCGCACGTGGGGTC | -0.23 |
| AGTAACACGTGCGGTT | -0.02 |
| CAGGTCACGTGTGGAT | 0.24 |
| CGGTTCACGTGGATGA | 0.45 |
| AGGGACACGTGTTGCT | 0.01 |
| AATTGCACGTGGTATC | -0.02 |

| Sequence | relative binding free energy [kcal/mol] |
| --- | --- |
| GTAAACACGTGGTTTA | -0.05 |
| GGTGTCACGTGAGAGT | 0.36 |
| GTTTACACGTGGTTAG | 0.08 |
| CTTAACACGTGGTTTA | 0.02 |
| GTAGACACGTGCAGGG | -0.02 |
| TATTGCACGTGCGGGA | 0.03 |
| GTCATCACGTGTTGTA | 0.18 |
| TTGGGCACGTGTGAAA | 0.05 |
| GTATTCACGTGGTTTT | 0.21 |
| CAGAGCACGTGATGGT | 0.11 |
| CATTTCACGTGGGCAT | 0.28 |
| GCGGACACGTGTGGCG | 0.11 |
| CTTGGCACGTGGGCTG | -0.33 |
| AGTTTCACGTGCTGGT | 0.15 |
| GGGGACACGTGCGGGA | -0.03 |
| TGTTGCACGTGGACTT | 0.18 |
| AAGGTCACGTGCTGGG | 0.06 |
| TATTTCACGTGATGTG | 0.33 |
| CGACTCACGTGGGGAG | 0.13 |
| CGGTTCACGTGGAGAA | 0.31 |
| ACGTGCACGTGGGGTC | -0.13 |
| ACGGTCACGTGGAGTT | 0.11 |
| TAGGGCACGTGAATGT | 0.1 |
| TAGGGCACGTGCGTTA | -0.19 |
| TATGTCACGTGTTGCA | 0.05 |

| Sequence | relative binding free energy [kcal/mol] |
| --- | --- |
| AGAAACACGTGGGTGG | -0.07 |
| TGTATCACGTGGTCTT | 0.04 |
| GTAGTCACGTGATTTG | 0.23 |
| TAGGTCACGTGGGCAG | -0.01 |
| ATGTTCACGTGCCGGG | 0.24 |
| TGAAACACGTGAGGGA | 0.17 |
| TAAGACACGTGTAAGT | 0.13 |
| TAAATCACGTGATGGG | 0.25 |
| GGGATCACGTGGTCAG | 0.09 |
| CAGTTCACGTGGCATG | 0.35 |
| GTGGGCACGTGAAATT | 0.28 |
| CACGTCACGTGGGGTT | -0.07 |
| TGTAGCACGTGATTTC | 0.18 |
| TCTGGCACGTGGTGCT | -0.2 |
| CGGTTCACGTGTAGAA | 0.27 |
| ATGCGCACGTGTGCGG | -0.21 |
| GTTATCACGTGCAGTA | 0.22 |
| GTGCGCACGTGTGACG | 0.04 |
| CTGTTCACGTGTGAGA | 0.19 |
| TCGGCCACGTGATGGG | 0.17 |
| TGTACCACGTGGGTGA | -0.28 |
| TTTGTCACGTGTTACA | 0.16 |
| GGGTTCACGTGTTGCC | 0.47 |
| TCGCGCACGTGGGCGG | -0.33 |
| AGCAACACGTGTGTTG | -0.07 |

| Sequence | relative binding free energy [kcal/mol] |
| --- | --- |
| TGATGCACGTGGTTAT | -0.17 |
| GTATGCACGTGGTTCT | -0.03 |
| TGAGTCACGTGCTAGT | 0.14 |
| CTTGTCACGTGGCGTA | 0.06 |
| TATTTCACGTGGGCAT | 0.19 |
| ATGAGCACGTGCTGTG | -0.22 |
| ATCATCACGTGCTTGT | 0.3 |
| AGGTACACGTGGAATG | 0.2 |
| TCATTCACGTGGGGTG | 0.18 |
| GAAAGCACGTGTTTGG | -0.11 |
| AAGTACACGTGTGTTG | 0.08 |
| TGTATCACGTGGAGGG | 0.05 |
| TGAGTCACGTGTGGCA | 0.1 |
| TTAATCACGTGGAAAT | 0.37 |
| CATGACACGTGGTTAG | -0.07 |
| TGTTGCACGTGGTCCG | -0.07 |
| ATCATCACGTGGGGTA | -0.01 |
| TTTTTCACGTGACAGA | 0.43 |
| TTGTTCACGTGGTATT | 0.26 |
| TAGTCCACGTGGTTCG | 0.12 |
| GGAGTCACGTGGGGAC | -0.01 |

From the BET-seq Pho4 binding data (Le et al. 2018)
